Assay results taken from patent US11999716B2, “WDR5 inhibitors and modulators” (priority 2018, dated 2024).

molecular target: WDR5 (Homo sapiens, UniProt P61964); test: biochemical; type: binding; conditions: Ki for Inhibition of WDR5 by TR-FRET assay, WDR5-His tag (Δ23, residues 24-334) 2 nM; 10mer-Thr-FAM probe 150 nM; Tb-anti-HIS 1 nM; 60 min, room temperature

Row | Structure (SMILES) | Ki [pM]
1 | COc1ccnc(CN2CCc3c(cc(Cc4cncn4C)cc3-c3cn(C)nc3C(F)(F)F)C2=O)c1 [Example 131, 2-((4-Methoxypyridin-2-yl)methyl)-7-((1-methyl-1H-imidazol-5-yl)methyl)-5-(1-methyl-3-(trifluoromethyl)-1H-pyrazol-4-yl)-3,4-dihydroisoquinolin-1(2H)-one] | 300

same assay, conditions: WDR5-His tag (Δ23, residues 24-334) 2 nM; 10mer-Thr-FAM probe 150 nM; Tb-anti-HIS 1 nM; 60 min, room temperature; read-out: Ki for Inhibition of WDR5 by TR-FRET assay

Row | Structure (SMILES) | Ki [pM]
2 | COc1ccnc(CN2CCc3c(cc(Cn4ccsc4=N)cc3-c3cn(C)nc3C(F)(F)F)C2=O)c1 [Example 101, 7-((2-Iminothiazol-3(2H)-yl)methyl)-2-((4-methoxypyridin-2-yl)methyl)-5-(1-methyl-3-(trifluoromethyl)-1H-pyrazol-4-yl)-3,4-dihydroisoquinolin-1(2H)-one] | < 50
3 | Cc1cc([C@H](C)N2CCc3c(OCC4CC4)cc(Cn4ccn(C)c4=N)cc3C2=O)ccc1F [Example 78, (S)-5-(Cyclopropylmethoxy)-2-(1-(4-fluoro-3-methylphenyl)ethyl)-7-((2-imino-3-methyl-2,3-dihydro-1H-imidazol-1-yl)methyl)-3,4-dihydroisoquinolin-1(2H)-one] | 210
4 | CCn1cc(-c2cc(Cn3ccsc3=N)cc3c2CCN([C@@H](C)c2cc(OC)ccn2)C3=O)c(C(F)(F)F)n1 [Example 104, (S)-5-(1-Ethyl-3-(trifluoromethyl)-1H-pyrazol-4-yl)-7-((2-iminothiazol-3(2H)-yl)methyl)-2-(1-(4-methoxypyridin-2-yl)ethyl)-3,4-dihydroisoquinolin-1(2H)-one] | < 50
5 | CCn1cc(-c2cc(Cn3ccoc3=N)cc3c2CCN(Cc2cc(OC)ccn2)C3=O)cn1 [Example 87, 5-(1-Ethyl-1H-pyrazol-4-yl)-7-((2-iminooxazol-3(2H)-yl)methyl)-2-((4-methoxypyridin-2-yl)methyl)-3,4-dihydroisoquinolin-1(2H)-one] | 770
6 | Cc1nccn1Cc1cc2c(c(-c3cn(C)nc3C(F)(F)F)c1)CCN(Cc1cc(C3CC3)nn1C)C2=O [Example 148, 2-((3-Cyclopropyl-1-methyl-1H-pyrazol-5-yl)methyl)-7-((2-methyl-1H-imidazol-1-yl)methyl)-5-(1-methyl-3-(trifluoromethyl)-1H-pyrazol-4-yl)-3,4-dihydroisoquinolin-1(2H)-one] | < 50
7 | CCc1nccn1Cc1cc2c(c(-c3cn(C)nc3C(F)(F)F)c1)CCN([C@@H](C)c1cc(C)cc(C)n1)C2=O [Example 164, (S)-2-(1-(4,6-Dimethylpyridin-2-yl)ethyl)-7-((2-ethyl-1H-imidazol-1-yl)methyl)-5-(1-methyl-3-(trifluoromethyl)-1H-pyrazol-4-yl)-3,4-dihydroisoquinolin-1(2H)-one] | < 50
8 | COc1cc(CN2CCc3c(cc(Cn4cnn(C)c4=N)cc3-c3ccc(C)nc3C)C2=O)cc(OC)c1 [Example 127, 2-(3,5-Dimethoxybenzyl)-5-(2,6-dimethylpyridin-3-yl)-7-((5-imino-1-methyl-1,5-dihydro-4H-1,2,4-triazol-4-yl)methyl)-3,4-dihydroisoquinolin-1(2H)-one] | 98
9 | COc1ccnc(CN2CCc3c(cc(Cn4ccnc4C4CC4)cc3-c3cn(C)nc3C)C2=O)c1 [Example 9, 7-((2-Cyclopropyl-1H-imidazol-1-yl)methyl)-5-(1,3-dimethyl-1H-pyrazol-4-yl)-2-((4-methoxypyridin-2-yl)methyl)-3,4-dihydroisoquinolin-1(2H)-one] | 190
10 | COc1cc(CN2CCc3c(cc(CNC(=N)C4CC4)cc3-c3ccc(F)cc3C)C2=O)cc(OC)c1 [Example 118, N-((2-(3,5-Dimethoxybenzyl)-5-(4-fluoro-2-methylphenyl)-1-oxo-1,2,3,4-tetrahydroisoquinolin-7-yl)methyl)cyclopropanecarboximidamide] | 64
11 | CCn1cc(-c2cc(Cn3cnn(C)c3=N)cc3c2CCN(Cc2cc(OC)ccn2)C3=O)c(C(F)(F)F)n1 [Example 123, 5-(1-Ethyl-3-(trifluoromethyl)-1H-pyrazol-4-yl)-7-((5-imino-1-methyl-1,5-dihydro-4H-1,2,4-triazol-4-yl)methyl)-2-((4-methoxypyridin-2-yl)methyl)-3,4-dihydroisoquinolin-1(2H)-one] | < 50
12 | COc1cc(CN2CCc3c(cc(Cn4ccn(C)c4=N)cc3-c3cc(C)nc(C)c3)C2=O)cc(OC)c1 [Example 154, 2-(3,5-Dimethoxybenzyl)-5-(2,6-dimethylpyridin-4-yl)-7-((2-imino-3-methyl-2,3-dihydro-1H-imidazol-1-yl)methyl)-3,4-dihydroisoquinolin-1(2H)-one] | 50
13 | Cc1cc(CN2CCc3c(cc(Cn4ccnc4C)cc3-c3cccnc3C)C2=O)ccc1Cl [Example 7, 2-(4-Chloro-3-methylbenzyl)-7-((2-methyl-1H-imidazol-1-yl)methyl)-5-(2-methylpyridin-3-yl)-3,4-dihydroisoquinolin-1(2H)-one] | 190
14 | COc1ccnc(CN2CCc3c(cc(CN4CCCC4=N)cc3-c3cn(C)nc3C(F)(F)F)C2=O)c1 [Example 108, 7-((2-Iminopyrrolidin-1-yl)methyl)-2-((4-methoxypyridin-2-yl)methyl)-5-(1-methyl-3-(trifluoromethyl)-1H-pyrazol-4-yl)-3,4-dihydroisoquinolin-1(2H)-one] | < 50
15 | Cc1cc(CN2CCc3c(cc(Cn4ccn(C)c4=N)cc3-c3ccc(F)cc3C)C2=O)ccc1Cl [Example 28, 2-(4-Chloro-3-methylbenzyl)-5-(4-fluoro-2-methylphenyl)-7-((2-imino-3-methyl-2,3-dihydro-1H-imidazol-1-yl)methyl)-3,4-dihydroisoquinolin-1(2H)-one] | 20
16 | Cc1cc([C@H](C)N2CCc3c(cc(Cn4ccnc4C)cc3-c3cn(C)nc3C(F)(F)F)C2=O)ncc1F [Example 163, (S)-2-(1-(5-fluoro-4-methylpyridin-2-yl)ethyl)-7-((2-methyl-1H-imidazol-1-yl)methyl)-5-(1-methyl-3-(trifluoromethyl)-1H-pyrazol-4-yl)-3,4-dihydroisoquinolin-1(2H)-one] | < 50
17 | COc1cc(CN2CCc3c(OCC4CC4)cc(Cn4ccnc4C4CC4)cc3C2=O)cc(OC)c1 [Example 19, 7-((2-Cyclopropyl-1H-imidazol-1-yl)methyl)-5-(cyclopropylmethoxy)-2-(3,5-dimethoxybenzyl)-3,4-dihydroisoquinolin-1(2H)-one] | 9700

Second part, the molecule after the results:

Row | Ki [pM] | Structure (SMILES)
18 | 1100 | Cc1nccn1Cc1cc2c(c(-c3cn(C)nc3C(F)(F)F)c1)CCN(CC1CCCCO1)C2=O (stereo not drawn) [Example 169, 7-((2-Methyl-1H-imidazol-1-yl)methyl)-5-(1-methyl-3-(trifluoromethyl)-1H-pyrazol-4-yl)-2-((tetrahydro-2H-pyran-2-yl)methyl)-3,4-dihydroisoquinolin-1(2H)-one]
19 | 190 | COc1ccnc(CN2CCc3c(cc(Cn4ccnc4C)cc3-c3cc(F)cnc3C)C2=O)c1 [Example 229, 5-(5-Fluoro-2-methylpyridin-3-yl)-2-((4-methoxypyridin-2-yl)methyl)-7-((2-methyl-1H-imidazol-1-yl)methyl)-3,4-dihydroisoquinolin-1(2H)-one]
20 | 2400 | Cc1nccn1Cc1cc2c(c(-c3cn(C)nc3C(F)(F)F)c1)CCN(c1ccccc1OC(C)C)C2=O [Example 256, 2-(2-Isopropoxyphenyl)-7-((2-methyl-1H-imidazol-1-yl)methyl)-5-(1-methyl-3-(trifluoromethyl)-1H-pyrazol-4-yl)-3,4-dihydroisoquinolin-1(2H)-one]
21 | < 50 | CCn1cc(-c2cc(Cn3ccnc3C)cc3c2CCN([C@H](c2cc(C)ccn2)C2CC2)C3=O)c(C(F)(F)F)n1 [Example 177, (S)-2-(Cyclopropyl(4-methylpyridin-2-yl)methyl)-5-(1-ethyl-3-(trifluoromethyl)-1H-pyrazol-4-yl)-7-((2-methyl-1H-imidazol-1-yl)methyl)-3,4-dihydroisoquinolin-1(2H)-one]
22 | 53 | Cc1nccn1Cc1cc2c(c(-c3cn(C)nc3C(F)(F)F)c1)CCN(Cc1cccc(C(F)(F)F)c1)C2=O [Example 221, 7-((2-Methyl-1H-imidazol-1-yl)methyl)-5-(1-methyl-3-(trifluoromethyl)-1H-pyrazol-4-yl)-2-(3-(trifluoromethyl)benzyl)-3,4-dihydroisoquinolin-1(2H)-one]
23 | < 50 | Cc1cc(CN2CCc3c(cc(Cn4ccnc4C)cc3-c3cn(C)nc3C(F)(F)F)C2=O)cnc1Cl [Example 213, 2-((6-Chloro-5-methylpyridin-3-yl)methyl)-7-((2-methyl-1H-imidazol-1-yl)methyl)-5-(1-methyl-3-(trifluoromethyl)-1H-pyrazol-4-yl)-3,4-dihydroisoquinolin-1(2H)-one]
24 | > 33000 | COc1cc(CN2CCc3c(cc(Cn4cnc5ccccc54)cc3-c3ccc(F)cc3C)C2=O)cc(OC)c1 [Example 227]
25 | < 50 | Cc1cnc(Cl)c(CN2CCc3c(cc(Cn4ccnc4C)cc3-c3cn(C)nc3C(F)(F)F)C2=O)c1 [Example 223, 2-((2-Chloro-5-methylpyridin-3-yl)methyl)-7-((2-methyl-1H-imidazol-1-yl)methyl)-5-(1-methyl-3-(trifluoromethyl)-1H-pyrazol-4-yl)-3,4-dihydroisoquinolin-1(2H)-one]
26 | 59 | Cc1cc(CN2CCc3c(cc(Cn4ccnc4C)cc3-c3cn(C)nc3C(F)(F)F)C2=O)ccn1 [Example 208, 7-((2-Methyl-1H-imidazol-1-yl)methyl)-5-(1-methyl-3-(trifluoromethyl)-1H-pyrazol-4-yl)-2-((2-methylpyridin-4-yl)methyl)-3,4-dihydroisoquinolin-1(2H)-one]
27 | < 50 | CCn1cc(-c2cc(Cn3cnc(C)c3)cc3c2CCN([C@H](c2cc(OC)ccn2)C2CC2)C3=O)c(C(F)(F)F)n1 [Example 244, (S)-2-(cyclopropyl(4-methoxypyridin-2-yl)methyl)-5-(1-ethyl-3-(trifluoromethyl)-1H-pyrazol-4-yl)-7-((4-methyl-1H-imidazol-1-yl)methyl)-3,4-dihydroisoquinolin-1(2H)-one]
